Measurements as given in the supplement of paper PMC12217912.
The other results are listed elsewhere or left out. Sequences were assembled here from the parent chain. Inactive controls read about 0.05.

B1: TEV protease; numbered along this chain (parent)
chain: MGESLFKGPRDYNPISSSICHLTNESDGHTTSLYGIGFGPFIITNKHLFRRNNGTLVVQSLHGVFKVKDTTTLQQHLVDGRDMIIIRMPKDFPPFPQKLKFREPQREERICLVTTNFQTKSMSSMVSDTSCTFPSGDGIFWKHWIQTKDGQCGSPLVSTRDGFIVGIHSASNFTNTNNYFTSVPKNFMELLTNQEAQQWVSGWRLNADSVLWGGHKVFMVKPEEPFQPVKEATQL

Variants of: B1
Assay: raw area under fraction-flipped curve 0-4 h after induction (AUC4h, not background-subtracted), DNA-recorder readout of cleavage of the substrate (dimensionless); higher = more cleavage of the substrate by the protease variant
Details: temperature: 34 °C; time window: 0-4 h after rhamnose induction
Description: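 In vivo DNA recorder in E. coli TOP10(DE3) ΔrhaA at 34 °C. Each TEVp single-site mutant (parent TEVp 0) is paired with a single-site variant of the 7-mer TEVs (canonical ENLYFQ|S). The substrate sits between flexible linkers in a Bxb1-sfGFP-TEVs-SsrA fusion, so cleavage stabilises Bxb1 and speeds flipping of a recombination array, read by NGS. The value is the raw area under the fraction-flipped curve over 0-4 h after rhamnose induction (AUC4h), with ≥20 reads per time point. It is not background-subtracted; inactive controls average about 0.047.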
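Also: Bxb1 expression induced with 0.2% (w/v) L-rhamnose at OD600 near 0.5, cultures sampled hourly, flipped fraction per protease–substrate barcode pair counted by paired-end Illumina sequencing.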

Row | Variant | area with substrate ENLYFQC | area with substrate ENLYFQK | area with substrate ENLYFQL | area with substrate ENLYFQM | area with substrate ENLYFQR | area with substrate ENLYFQS | area with substrate ENLYFQT | area with substrate ENLYFQW | area with substrate ENLYFQD | area with substrate ENLYFQF | area with substrate ENLYFQH | area with substrate ENLYFQN | area with substrate ENLYFQP | area with substrate ENLYFQG | area with substrate ENLYFQV | area with substrate ENLYFQY | area with substrate ENLYFQE | area with substrate ENLYFQI | area with substrate ENLYFQQ
1 | V165W | 0.0514 | 0.0495 | 0.0498 | 0.0635 | 0.047 | 0.0515 | 0.0434 | 0.0521 | – | – | – | – | – | – | – | – | – | – | –
2 | R50M | 0.16 | 0.0635 | 0.0498 | 0.121 | 0.0641 | 0.152 | – | 0.0554 | 0.0496 | 0.0908 | 0.114 | 0.115 | 0.0763 | – | – | – | – | – | –
3 | T23D | 0.0916 | – | 0.0588 | 0.077 | – | 0.0969 | 0.0596 | – | 0.0539 | 0.0696 | – | 0.0719 | 0.0407 | 0.0912 | 0.0617 | 0.0786 | – | – | –
4 | R106M | 0.124 | 0.0784 | 0.055 | – | 0.0682 | 0.101 | – | – | – | 0.102 | 0.0879 | 0.0688 | – | – | – | – | 0.0093 | – | –
5 | G214R | 0.0791 | 0.0601 | 0.0538 | 0.0661 | 0.0735 | 0.0778 | 0.0604 | 0.0529 | 0.0724 | 0.0626 | 0.0612 | – | – | 0.0952 | – | 0.058 | 0.0648 | 0.0751 | –
6 | S124L | 0.12 | – | 0.054 | 0.0845 | 0.0436 | 0.0904 | – | – | – | – | – | – | – | – | 0.0524 | – | – | – | –
7 | E103R | 0.0939 | 0.0673 | 0.0604 | 0.0792 | 0.0578 | 0.0938 | 0.0368 | 0.0625 | 0.0545 | 0.0753 | 0.0665 | 0.0668 | – | – | 0.0658 | 0.064 | – | 0.0498 | –
8 | D161M | 0.085 | 0.0532 | – | 0.0503 | 0.0128 | 0.0589 | 0.0443 | 0.0464 | – | – | – | – | – | 0.118 | – | – | – | 0.038 | 0.0587
9 | F180K | 0.0533 | 0.0601 | 0.0305 | 0.0545 | – | 0.0563 | 0.0573 | 0.0595 | 0.055 | – | – | 0.0516 | – | 0.0521 | 0.0602 | 0.0548 | 0.0582 | – | –
10 | Q227C | 0.107 | – | 0.049 | 0.0648 | 0.0659 | 0.103 | 0.0669 | – | 0.0772 | – | 0.0761 | 0.0768 | 0.0693 | 0.0537 | 0.0617 | – | – | – | 0.0727
11 | H62L | 0.123 | – | 0.0617 | 0.0927 | 0.0791 | 0.0978 | – | – | – | – | – | – | – | – | – | – | – | 0.0598 | 0.0591
12 | G162W | 0.105 | – | 0.0384 | – | 0.0587 | 0.0871 | – | 0.0521 | – | – | 0.0848 | – | 0.0613 | 0.0806 | 0.0468 | 0.0821 | 0.0653 | 0.04 | 0.053
13 | Q74A | 0.118 | 0.108 | – | 0.0798 | 0.0501 | 0.0975 | 0.0578 | – | – | 0.0824 | 0.068 | 0.0836 | 0.0547 | 0.0788 | – | – | – | 0.0659 | –
14 | H143F | 0.105 | 0.0666 | 0.0567 | 0.0871 | 0.0634 | 0.107 | 0.0519 | – | 0.0778 | – | – | – | – | 0.115 | 0.0595 | 0.0796 | – | 0.0737 | –
15 | N178K | 0.134 | – | – | – | – | 0.106 | – | 0.0633 | 0.0031 | – | – | 0.0718 | 0.0522 | – | 0.0197 | – | – | 0.0618 | –
16 | L5K | 0.0972 | 0.0599 | 0.0616 | 0.114 | 0.0753 | 0.129 | – | 0.0649 | 0.0739 | 0.0773 | – | – | – | – | 0.0473 | – | – | – | –

Row | Variant | area with substrate ENLYFQC | area with substrate ENLYFQK | area with substrate ENLYFQL | area with substrate ENLYFQM | area with substrate ENLYFQR | area with substrate ENLYFQS | area with substrate ENLYFQT | area with substrate ENLYFQW | area with substrate ENLYFQD | area with substrate ENLYFQF | area with substrate ENLYFQH | area with substrate ENLYFQN | area with substrate ENLYFQP | area with substrate ENLYFQG | area with substrate ENLYFQV | area with substrate ENLYFQY | area with substrate ENLYFQE | area with substrate ENLYFQI | area with substrate ENLYFQQ
17 | G37H | 0.0884 | – | 0.0532 | – | 0.0334 | 0.0816 | 0.05 | 0.0641 | 0.0954 | 0.0567 | 0.118 | 0.0663 | – | – | 0.0551 | – | – | 0.0569 | –
18 | T55N | 0.0934 | – | 0.0697 | 0.0864 | 0.0623 | 0.0899 | 0.0681 | 0.0621 | 0.0459 | – | – | 0.071 | – | 0.0661 | – | – | 0.0849 | 0.056 | –
19 | V113I | 0.118 | 0.0678 | – | 0.0912 | – | 0.104 | – | 0.0525 | 0.0865 | – | – | 0.115 | 0.0499 | 0.0811 | 0.0764 | – | 0.0664 | – | –
20 | G138S | 0.124 | – | – | – | 0.0552 | 0.106 | – | – | 0.0916 | – | 0.0767 | – | – | – | – | 0.0754 | – | 0.0543 | –
21 | H215P | 0.0775 | – | 0.0519 | 0.0376 | 0.0524 | 0.0612 | 0.0783 | 0.0464 | 0.0691 | – | – | 0.0488 | 0.0663 | 0.0521 | – | 0.0503 | 0.0665 | 0.0531 | –
22 | S182I | 0.11 | 0.0628 | – | 0.0668 | – | 0.0885 | 0.0493 | 0.0591 | 0.0643 | – | – | 0.0598 | – | 0.0679 | – | – | – | – | 0.0505
23 | M219N | 0.0803 | – | – | – | 0.0785 | 0.0975 | – | 0.0512 | – | – | – | 0.0634 | – | – | 0.0785 | – | 0.0596 | 0.0602 | 0.0533
24 | R81S | 0.0836 | – | 0.0567 | 0.0466 | 0.0614 | 0.0778 | 0.0516 | 0.052 | 0.0496 | 0.0618 | – | 0.0509 | 0.0825 | – | 0.0464 | 0.0589 | 0.0715 | 0.0544 | 0.0509
25 | R81W | 0.057 | 0.0595 | 0.0534 | 0.0563 | 0.0604 | 0.0714 | – | 0.053 | 0.056 | – | – | – | 0.0884 | – | 0.047 | 0.0574 | – | – | –
26 | M125G | 0.118 | – | – | 0.0774 | 0.0228 | 0.104 | 0.0674 | – | 0.0824 | – | 0.104 | 0.0768 | – | – | 0.0726 | 0.077 | – | – | –
27 | T71N | 0.132 | – | – | 0.0747 | 0.0539 | 0.0897 | 0.0586 | 0.0405 | – | 0.0745 | 0.0635 | – | 0.0505 | 0.103 | 0.0628 | 0.0758 | – | – | 0.0711
28 | I139R | 0.11 | 0.0638 | 0.0538 | 0.0748 | 0.0643 | 0.091 | 0.0604 | 0.065 | – | – | – | 0.073 | – | 0.107 | 0.0571 | 0.0588 | – | 0.0525 | –
29 | T30I | 0.109 | 0.0656 | 0.0997 | 0.0817 | 0.0554 | 0.0894 | 0.0697 | 0.0633 | – | 0.0656 | 0.0666 | 0.088 | 0.0739 | 0.058 | 0.0683 | 0.0538 | – | 0.0762 | –
30 | W141E | 0.0735 | 0.0647 | – | 0.0434 | 0.0562 | 0.058 | 0.0627 | 0.0598 | – | – | 0.0474 | – | 0.0603 | – | – | 0.0486 | – | – | –
31 | Q197M | 0.154 | – | – | 0.093 | – | 0.109 | 0.0664 | – | – | – | 0.0557 | – | – | – | 0.0636 | – | 0.0748 | 0.0558 | –
